Laboratory results as given in the supplement of paper PMC12217912.
Some of the results follow. The full chains were built here from the parent and the listed change. Inactive controls read about 0.05.

B1: TEV protease; numbered along this chain (parent)
chain: MGESLFKGPRDYNPISSSICHLTNESDGHTTSLYGIGFGPFIITNKHLFRRNNGTLVVQSLHGVFKVKDTTTLQQHLVDGRDMIIIRMPKDFPPFPQKLKFREPQREERICLVTTNFQTKSMSSMVSDTSCTFPSGDGIFWKHWIQTKDGQCGSPLVSTRDGFIVGIHSASNFTNTNNYFTSVPKNFMELLTNQEAQQWVSGWRLNADSVLWGGHKVFMVKPEEPFQPVKEATQL

Variants of: B1
Assay: raw area under fraction-flipped curve 0-4 h after induction (AUC4h, not background-subtracted), DNA-recorder readout of cleavage of the substrate (dimensionless); higher = more cleavage of the substrate by the protease variant
Settings: temperature: 34 °C; time window: 0-4 h after rhamnose induction
Description: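 In vivo DNA recorder in E. coli TOP10(DE3) ΔrhaA at 34 °C. Each TEVp single-site mutant (parent TEVp 0) is paired with a single-site variant of the 7-mer TEVs (canonical ENLYFQ|S). The substrate sits between flexible linkers in a Bxb1-sfGFP-TEVs-SsrA fusion, so cleavage stabilises Bxb1 and speeds flipping of a recombination array, read by NGS. The value is the raw area under the fraction-flipped curve over 0-4 h after rhamnose induction (AUC4h), with ≥20 reads per time point. It is not background-subtracted; inactive controls average about 0.047.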
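Also: Bxb1 expression induced with 0.2% (w/v) L-rhamnose at OD600 near 0.5, cultures sampled hourly, flipped fraction per protease–substrate barcode pair counted by paired-end Illumina sequencing.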

| Variant | area with substrate ENLYFAS | area with substrate ENLYFCS | area with substrate ENLYFDS | area with substrate ENLYFFS | area with substrate ENLYFGS | area with substrate ENLYFHS | area with substrate ENLYFIS | area with substrate ENLYFKS | area with substrate ENLYFNS | area with substrate ENLYFPS | area with substrate ENLYFRS | area with substrate ENLYFSS | area with substrate ENLYFTS | area with substrate ENLYFVS | area with substrate ENLYFWS | area with substrate ENLYFES | area with substrate ENLYFMS | area with substrate ENLYFLS | area with substrate ENLYFYS |
| --- | --- | --- | --- | --- | --- | --- | --- | --- | --- | --- | --- | --- | --- | --- | --- | --- | --- | --- | --- |
| MGESLFKGPRDYNPISSSICHLTNESDGHTTSLYGIGFGPFIITNKHLFRRNNGTLVVQSLHGVFKVKDTTTLQQHLVDGRDMIIIRMPKDFPPFPQKLKFREPQREERICLVTTNFQTKSMSSMVSDTSCTFPSGDGIFWKHWIQTKDGQCGSPLVSTRDGFIVGSHSASNFTNTNNYFTSVPKNFMELLTNQEAQQWVSGWRLNADSVLWGGHKVFMVKPEEPFQPVKEATQL [I167S] | 0.0541 | 0.0223 | 0.0707 | 0.071 | 0.0539 | 0.0458 | 0.0589 | 0.0575 | 0.0571 | 0.047 | 0.0594 | 0.0531 | 0.0551 | 0.0288 | 0.0577 |  |  |  |  |
| MGESLFKGPRDYNPISSSICHLTNESDGHTTSLYGIGFGPFIITNKHLFRRNNGTLVVQSLHGVFKVKDTTTLQQHLVDGRDMIIIRMPKDFPPFPQKLKFREPQREERICLVTTNFQTKSMSSMVSDTSCTFPSGDGIFWKHWIQTKDGQCGSPLVSTRDGFIVGYHSASNFTNTNNYFTSVPKNFMELLTNQEAQQWVSGWRLNADSVLWGGHKVFMVKPEEPFQPVKEATQL [I167Y] | 0.0521 | 0.0817 | 0.0732 | 0.0671 | 0.0639 |  | 0.0573 | 0.057 | 0.0661 |  | 0.0649 |  |  | 0.0638 |  | 0.0555 | 0.0718 |  |  |
| MGESLFKGPRDYNPISSSICHLTNESDGHTTSLYGIGFGPFIITNKHLFRRNNGTLVVQSLHGVFKVKDTTTLQQHLVDGRDMIIIRMPKDFPPFPQKLKFREPQREERICLVTTNFQTKSMSSMVSDTSCTFPSGDGIFWKHWIQTKDGQCGSPLVSTRDGFIVGIHSAVNFTNTNNYFTSVPKNFMELLTNQEAQQWVSGWRLNADSVLWGGHKVFMVKPEEPFQPVKEATQL [S171V] | 0.0608 | 0.0515 |  |  | 0.0626 |  | 0.0631 |  | 0.0582 | 0.0592 | 0.0553 | 0.0626 | 0.0513 | 0.0656 | 0.0454 | 0.0625 | 0.0593 | 0.062 |  |
| MGESLFKGPRDYNPISSSICHLTNESDGHTTSLYGIGFGPFIITNKHLFRRNNGTLVVQSLHGVFKVKDTTTLQQHLVDGRDMIIIRMPKDFPPFPQKLKFREPQREERICLVTTNFQTKSMSSMVSDTSCTFPSGDGIFWKHWIQTKDGQCGSPLVSTRDGFIVGIHSASNFTNTNNYFTSVPKNFMELLFNQEAQQWVSGWRLNADSVLWGGHKVFMVKPEEPFQPVKEATQL [T192F] | 0.047 | 0.0671 | 0.0492 | 0.0549 | 0.0572 |  | 0.0609 | 0.0546 | 0.0566 | 0.057 |  | 0.0542 | 0.0663 |  | 0.0683 | 0.0589 | 0.0689 |  |  |
| MGESLFKGPRDYNPISSSICHLTNESDGHTTSLYGIGFGPFIITNKHLFRRNNGTLVVQSLHGVFKVKDTTTLQQHLVDGRDMIIIRMPKDFPPFPQKLKFREPQREERICLVTTNFQTKSMSSMVSDTSCTFPSGDGIFWKHWIQTKDGQCGSPLVSTRDGFIVGIHSASNFTNTNNYFTSVPKNFMELLANQEAQQWVSGWRLNADSVLWGGHKVFMVKPEEPFQPVKEATQL [T192A] | 0.0571 | 0.0613 | 0.0377 |  | 0.0586 |  |  | 0.0513 |  | 0.0726 | 0.0581 | 0.0487 | 0.0699 |  |  | 0.0549 | 0.0644 |  | 0.0672 |
| MGESLFKGPRDYNPISSSICHLTNESDGHTTSLYGIGFGPFIITNKHLFRRNNGTLVVQSLHGVFKVKDTTTLQQHLVDGRDMIIIRMPKDFPPFPQKLKFREPQREERICLVTTNFQTKSMSSMVSDTSCTFPSGDGIFWKHWIQTKDGQCGSPLVSTRDGFIVGIHSASNFTNTNNYGTSVPKNFMELLTNQEAQQWVSGWRLNADSVLWGGHKVFMVKPEEPFQPVKEATQL [F180G] | 0.02 | 0.0441 |  | 0.0688 |  | 0.0657 |  | 0.0541 | 0.0493 |  | 0.0583 | 0.0845 | 0.0525 | 0.0438 | 0.0686 |  | 0.0436 |  |  |
| MGESLFKGPRDYNPISSSICHLTNESDGHTTSLYGIGFGPFIITNKHLFRRNNGTLVVQSLHGVFKVKDTTTLQQHLVDGRDMIIIRMPKDFPPFPQKLKFREPQREERICLVTTNFQTKSMSSMVSDTSCTFPSGDGIFWKHWIQTKDGQCGSPLVSTRDGFIVGIHSASNFTNTNNYFTSVPKNFMELGTNQEAQQWVSGWRLNADSVLWGGHKVFMVKPEEPFQPVKEATQL [L191G] | 0.0531 |  | 0.0538 |  |  | 0.0602 | 0.0506 |  | 0.0757 | 0.0225 | 0.0454 | 0.0447 | 0.0486 |  | 0.0632 | 0.0557 | 0.0562 |  | 0.042 |
| MGESLFKGPRDYNPISSSICHLTNESDGHTTSLYGIGFGPFIITNKHLFRRNNGTLVVQSLHGVFKVKDTTTLQQHLVDGRDMIIIRMPKDFPPFPQKLKFREPQREERICLVTTNFQTKSMSSMVSDTSCTFPSGDGIFWKHWIQTKDGQCGSPLVSTRDGFIVGIHSASNFTNTNNYFTSVPKNFMELDTNQEAQQWVSGWRLNADSVLWGGHKVFMVKPEEPFQPVKEATQL [L191D] | 0.0644 |  |  | 0.0875 |  |  | 0.0543 |  | 0.0571 | 0.049 | 0.0515 |  | 0.0538 | 0.0679 | 0.0414 |  |  | 0.0634 | 0.0475 |
| MGESLFKGPRDYNPISSSICHLTNESDGHTTSLYGIGFGPFIITNKHLFRRNNGTLVVQSLHGVFKVKDTTTLQQHLVDGRDMIIIRMPKDFPPFPQKLKFREPQREERICLVTTNFQTKSMSSMVSDTSCTFPSGDGIFWKHWIQTKDGQCGSPLVSTRDGFIVGIHSASNFTNTNNYFTSLPKNFMELLTNQEAQQWVSGWRLNADSVLWGGHKVFMVKPEEPFQPVKEATQL [V183L] | 0.0621 | 0.0545 | 0.0561 | 0.0728 |  |  | 0.061 | 0.0653 | 0.0636 |  |  |  |  | 0.091 | 0.0646 | 0.0555 |  |  | 0.0475 |
| MGESLFKGPRDYNPISSSICHLTNESDGHTTSLYGIGFGPFIITNKHLFRRNNGTLVVQSLHGVFKVKDTTTLQQHLVDGRDMIIIRMPKDFPPFPQKLKFREPQREERICLVTTNFQTKSMSSMVSDTSCTFPSGDGIFWKHWIQTKDGQCGSPLVSTRDGFIVGIHSASNFTNTNNYFTKVPKNFMELLTNQEAQQWVSGWRLNADSVLWGGHKVFMVKPEEPFQPVKEATQL [S182K] | 0.0522 | 0.0472 | 0.0545 | 0.025 | 0.0598 | 0.0598 | 0.054 | 0.0599 |  | 0.0549 |  |  | 0.0523 | 0.0481 | 0.0634 | 0.0582 | 0.0671 | 0.0564 |  |
